Results as given in US9439918B2 (priority 2008, dated 2016).

Columns and labels:
Format in all cases: cell-based
Settings in all cases: broth microdilution
S. aureus 29213 Ery-S = test system: S. aureus 29213 Ery-S
[1] = test system: S. aureus 96:11480 Ery-R (MLSb)
[2] = test system: S. pneumoniae 163 Ery-R (MefA)
[3] = test system: S. pneumoniae 303 Ery-R (ermB)
[4] = test system: H. influenzae 49247 Ery-S
S. aureus RN220 = test system: S. aureus RN220

## CCC1OC(=O)C(C)C(=O)C(C)C(OC2OC(C)CC(N(C)C)C2O)C(C)(OC)CC(C)C(=O)C(C)C2N(CCCCn3cc(Cn4nnc5ccccc54)nn3)C(=O)OC12C (stereo not shown) [Entry 18b]
S. aureus 29213 Ery-S
  Minimum inhibitory concentration, S. aureus 29213 Ery-S: 1 µg/mL (≈ 1.15 µM)
[1]
  Minimum inhibitory concentration, S. aureus 96:11480 Ery-R (MLSb): 2 µg/mL (≈ 2.31 µM)
[2]
  Minimum inhibitory concentration, S. pneumoniae 163 Ery-R (MefA): 4 µg/mL (≈ 4.61 µM)
[3]
  Minimum inhibitory concentration, S. pneumoniae 303 Ery-R (ermB): 64 µg/mL (≈ 73.8 µM)
[4]
  Minimum inhibitory concentration, H. influenzae 49247 Ery-S: 32 µg/mL (≈ 36.9 µM)

## CC[C@H]1OC(=O)[C@H](C)[C@@H](OC2CC(C)(OC)C(O)C(C)O2)[C@H](C)[C@@H](OC2OC(C)CC(N(C)C)C2O)[C@@](C)(OC)C[C@@H](C)C(=O)[C@H](C)[C@H]2N(CCCCn3cc(Cn4nnc5ccccc54)nn3)C(=O)O[C@]12C (stereo partly shown) [Entry 20e]
[2]
  Minimum inhibitory concentration, S. pneumoniae 163 Ery-R (MefA): 0.5 µg/mL (≈ 0.487 µM)
[3]
  Minimum inhibitory concentration, S. pneumoniae 303 Ery-R (ermB): 2 µg/mL (≈ 1.95 µM)
S. aureus RN220
  MIC, S. aureus RN220: 8 µg/mL (≈ 7.79 µM)

## CC[C@H]1OC(=O)[C@H](C)[C@@H](OC2CC(C)(OC)C(O)C(C)O2)[C@H](C)[C@@H](OC2OC(C)CC(N(C)C)C2O)[C@@](C)(OC)C[C@@H](C)C(=O)[C@H](C)[C@H]2N(CCCCn3cc(-c4ccccn4)nn3)C(=O)O[C@]12C (stereo partly shown) [Entry 20a]
[2]
  Minimum inhibitory concentration, S. pneumoniae 163 Ery-R (MefA): 0.125 µg/mL (≈ 0.128 µM)
[3]
  Minimum inhibitory concentration, S. pneumoniae 303 Ery-R (ermB): 2 µg/mL (≈ 2.06 µM)
S. aureus RN220
  MIC, S. aureus RN220: 8 µg/mL (≈ 8.22 µM)

## CC[C@H]1OC(=O)[C@@](C)(F)C(=O)[C@H](C)[C@@H](OC2OC(C)CC(N(C)C)C2O)[C@@](C)(OC)C[C@@H](C)C(=O)[C@H](C)[C@H]2N(CCCCn3cc(-c4ccccn4)nn3)C(=O)O[C@]12C (stereo partly shown) [Entry 23a]
S. aureus 29213 Ery-S
  Minimum inhibitory concentration, S. aureus 29213 Ery-S: ≦0.125 μg/mL
[1]
  Minimum inhibitory concentration, S. aureus 96:11480 Ery-R (MLSb): ≦0.125 μg/mL
[2]
  Minimum inhibitory concentration, S. pneumoniae 163 Ery-R (MefA): ≦0.125 μg/mL
[3]
  Minimum inhibitory concentration, S. pneumoniae 303 Ery-R (ermB): ≦0.125 μg/mL
[4]
  Minimum inhibitory concentration, H. influenzae 49247 Ery-S: 2 µg/mL (≈ 2.41 µM)

## CC[C@H]1OC(=O)[C@H](C)[C@@H](OC2CC(C)(OC)C(O)C(C)O2)[C@H](C)[C@@H](OC2OC(C)CC(N(C)C)C2O)[C@@](C)(OC)C[C@@H](C)C(=O)[C@H](C)[C@H]2N(CCCCn3cc(COc4c(Cl)cccc4Cl)nn3)C(=O)O[C@]12C (stereo partly shown) [Entry 20d]
[2]
  Minimum inhibitory concentration, S. pneumoniae 163 Ery-R (MefA): 0.5 µg/mL (≈ 0.467 µM)
[3]
  Minimum inhibitory concentration, S. pneumoniae 303 Ery-R (ermB): 2 µg/mL (≈ 1.87 µM)
S. aureus RN220
  MIC, S. aureus RN220: 8 µg/mL (≈ 7.47 µM)

## CC[C@H]1OC(=O)[C@H](C)[C@@H](OC2CC(C)(OC)C(O)C(C)O2)[C@H](C)[C@@H](OC2OC(C)CC(N(C)C)C2O)[C@@](C)(OC)C[C@@H](C)C(=O)[C@H](C)[C@H]2N(CCCCn3cc(-c4cccnc4)nn3)C(=O)O[C@]12C (stereo partly shown) [Entry 20b]
[2]
  Minimum inhibitory concentration, S. pneumoniae 163 Ery-R (MefA): ≦0.06 μg/mL
[3]
  Minimum inhibitory concentration, S. pneumoniae 303 Ery-R (ermB): 1 µg/mL (≈ 1.03 µM)
S. aureus RN220
  MIC, S. aureus RN220: 8 µg/mL (≈ 8.22 µM)

In brackets after ≈: the same amount, converted by molar mass.
